Measurements reported in PubChem BioAssay AID1345083 (National Center for Advancing Translational Sciences (NCATS), 2018).
About 6,200 (6.6%) of roughly 94,000 compounds were called active. Inconclusive means that the source gave no clear call. Such entries were picked first, then a sample of the others. Calls follow the shape of the dose curve; as a rule, active = well fitted inhibition curve with a large enough effect; inconclusive = small, poorly fitted or top-dose-only effect; inactive = flat fitted curve, though single readings scatter. Where the call is inconclusive, the potency comes from a doubtful curve fit.

experiment: Cytotoxic Profiling in HEK 293 Cell Line of Diverse Libraries Using Quantitative High-Throughput Screening; details: HEK 293 viability, ATP luminescence (CellTiter-Glo), 48-72 h; activity change, negative = cytotoxicity: at 115 µM (top of the series) unless noted; series mostly up to 115 µM; also: nearly all actives have a fitted effect of over 60% in size
Method in brief: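 250 HEK 293 cells/well; compound by pintool; incubated 48 or 72 hr at 37 degree Celsius; CellTiter-Glo added, 10 min RT, luminescence imaged.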
% is scaled to controls: 0 for no effect and ±100 for the full control effect; potency is read from the fitted curve at half-maximal effect; tags tell the direction and shape of the fitted curve.

Row | SMILES | Potency | activity change, negative = cytotoxicity | outcome
1 | CC(=O)Nc1ccc(S(=O)(=O)N2C[C@@H]3C[C@H](C2)c2c(-c4ccc(OC(F)(F)F)cc4)ccc(=O)n2C3)cc1 | inconclusive: 56.2 µM [inhibitor, partial curve, poor fit] |  | 
2 | COc1cccc(C(=O)N(C)Cc2ccccc2C(F)(F)F)c1 | active: 100 µM |  | 
3 | O=C(c1ccsc1)N1CCCC(c2noc(COc3ccccc3)n2)C1 (configuration not stated) | inconclusive: 89.1 µM [inhibitor, single point] |  | 
4 | CCC(CC)NC(=O)CCC1CCN(C(=O)c2ccc(C)cc2)CC1 |  | inactive: -11% | 
5 | Cc1ccc(-c2cc(N3CCCN(C(=O)COc4ccccc4)CC3)n[nH]2)cc1C | inconclusive: 39.8 µM [inhibitor, partial curve, poor fit] |  | 
6 | O=C(N[C@@H]1CCC[C@@H]1C(=O)NCCc1cccs1)c1ccncc1 |  | inactive: 4.87% | 
7 | COc1ccc(C(=O)N2CCC3(C2)C(=O)N(Cc2ccccc2)c2ccccc23)cc1 (configuration not stated) | inconclusive: 50.1 µM [inhibitor, partial curve] |  | 
8 | Cc1ccc(OCCC2CCN(C(=O)Cc3ccsc3)C2)cc1 (configuration not stated) | inconclusive: 50.1 µM [inhibitor, partial curve, poor fit] |  | 
9 | COCc1ccc2c(c1)c(OC(C)(C)C(=O)N1CCN(C)CC1)nn2Cc1ccccc1 | inconclusive: 112 µM [inhibitor, single point] |  | 
10 | Cc1ccc(NC(=O)C2CN(S(=O)(=O)C3CC3)CC23CCCCC3)c(C)c1 (configuration not stated) | inconclusive: 31.6 µM [inhibitor, full curve, poor fit] |  | 
11 | COc1ccc(C(=O)N(C)C2CCc3ccccc32)cc1 (configuration not stated) | inconclusive: 89.1 µM [inhibitor, partial curve, poor fit] |  | 
12 | O=C(c1nc(-c2ccc(Cl)cc2)c2ccccn12)N1CCCC1 | inconclusive: 63.1 µM [inhibitor, partial curve, poor fit] |  | 
13 | CN1CCC(C(=O)N2Cc3ccccc3CC3(CCCN(Cc4ccccc4)C3)C2)CC1 (configuration not stated) | inconclusive: 56.2 µM [inhibitor, partial curve, poor fit] |  | 
14 | Cc1ccc(-c2nnc(C3CN(C(=O)Cc4cccc(C)c4)CC34CCOCC4)o2)cc1 (configuration not stated) | inconclusive: 50.1 µM [inhibitor, partial curve, poor fit] |  | 
15 | COc1cccc(C(=O)N2CCCC(n3cc(-c4nc(C(C)C)no4)nn3)C2)c1 (configuration not stated) |  | inactive: -21.6% | 
16 | O=C1CC2(CCN(Cc3cccc4ccccc34)CC2)Oc2cc(Cl)ccc21 | inconclusive: 79.4 µM [inhibitor, single point] |  | 

Row | SMILES | Potency | activity change, negative = cytotoxicity | outcome
17 | COc1ccc(CCNC(=O)CC(c2ccccc2OC)c2c[nH]c3ccccc23)cc1OC (configuration not stated) | inconclusive: 56.2 µM [inhibitor, partial curve, poor fit] |  | 
18 | Cc1cccc(-c2cccc(CN3CCC(N[S+](=O)([O-])c4ccccc4)CC3)c2)c1 | active: 28.2 µM |  | 
19 | O=C1CC(c2ccccc2)N(C(=O)CNC(=O)C2CC=CC2)CCCCCN1 (configuration not stated) |  |  | inactive
20 | COc1ccc(C(=O)N2CCC3(C2)C(=O)N(c2ccccc2)c2ccccc23)cc1 (configuration not stated) | inconclusive: 79.4 µM [inhibitor, partial curve, poor fit] |  | 
21 | O=C(c1ccc2c(c1)OCO2)N1CCCN(c2cc(-c3ccc(Cl)cc3)[nH]n2)CC1 | inconclusive: 56.2 µM [inhibitor, partial curve, poor fit] |  | 
22 | Cc1ccc(NC(=O)C2(Cc3ccccc3)CCCCC(=O)N2)cc1 (configuration not stated) |  | inactive: 3.1% | 
23 | CN(C)c1ccc(C(=O)N[C@H]2CO[C@H]3[C@@H]2OC[C@@H]3Nc2nccc(-c3cccs3)n2)cc1 | active: 44.7 µM |  | 
24 | CC(=O)c1ccc(NC(=O)O[C@@H]2CO[C@H]3[C@@H]2OC[C@@H]3NC(=O)Nc2ccccc2)cc1 | inconclusive: 126 µM [inhibitor, single point] |  | 
25 | COc1ccc(C(=O)N[C@H]2CO[C@H]3[C@@H]2OC[C@@H]3n2nnnc2Oc2ccc3c(c2)OCO3)cc1 | inconclusive: 35.5 µM [inhibitor, full curve] |  | 
26 | Cc1ccc(-c2noc([C@@H]3C[C@@H](O)CN3Cc3ccccc3O)n2)cc1F | inconclusive: 100 µM [inhibitor, partial curve, poor fit] |  | 
27 | Nc1nc(C2CC(O)C2)cc(N2CCCN(Cc3ccccn3)CC2)n1 (configuration not stated) | inconclusive: 56.2 µM [inhibitor, partial curve, poor fit] |  | 
28 | COCCOCc1nc(C2CCN(C(=O)c3ccncc3)CC2)no1 |  | inactive: -0.248% | 
29 | O=C(CC1=CCCCC1)N1CCC2(CC1)CN(c1ccncn1)CC2CO (configuration not stated) | inconclusive: 89.1 µM [inhibitor, single point] |  | 
30 | CCOC(=O)C1CCN(C(=O)c2ccc3oc(-c4ccncc4Cl)nc3c2)CC1 | inconclusive: 8.91 µM [inhibitor, full curve, poor fit] |  | 
31 | COc1ccccc1NC(=O)Nc1ccc2n(c1=O)C[C@H]1C[C@@H]2CN(C(=O)Cc2cccs2)C1 |  | inactive: -12% | 
32 | O=C(Nc1ccccc1)Nc1ccc([C@H]2OCC(=O)N(Cc3ccc(F)cc3)[C@@H]2CO)cc1 | active: 39.8 µM |  | 
